Reference: PubChem BioAssay AID1346428 (National Center for Advancing Translational Sciences (NCATS), 2018)
Where “and” joins values, the source holds several entries; their conditions need not be identical. Equal values may be shown once. The campaign covered roughly 48,000 compounds. About 1,200 (2.5%) were called active. Inconclusive results (about 2%) are left out.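 How the source made its calls: active means activation of at least 60% and not above a set upper limit (about 1 call in 100 departs from these limits); inconclusive means activation of 40% to 60%, or above that upper limit; inactive means activation under 40%.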 The list shows a part of the results.

Molecular target: Probable G-protein coupled receptor 32 (Homo sapiens) (UniProt O75388)
UniProt O75388, sequence (O75388 whole entry, looked up): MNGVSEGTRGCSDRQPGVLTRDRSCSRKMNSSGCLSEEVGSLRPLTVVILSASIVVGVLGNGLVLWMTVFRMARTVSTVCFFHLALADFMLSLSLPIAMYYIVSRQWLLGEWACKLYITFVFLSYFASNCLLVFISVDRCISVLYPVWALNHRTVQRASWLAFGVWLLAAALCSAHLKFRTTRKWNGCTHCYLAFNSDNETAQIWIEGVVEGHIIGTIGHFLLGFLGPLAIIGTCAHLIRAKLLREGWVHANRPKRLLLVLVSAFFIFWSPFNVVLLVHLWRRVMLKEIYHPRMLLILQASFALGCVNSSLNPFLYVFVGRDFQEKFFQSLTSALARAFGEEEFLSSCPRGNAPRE
Test: qHTS for Agonists of Human Resolvin D1 Receptor DRV1
Conditions: CHO-K1 GPR32 beta-arrestin PathHunter luminescence, 90 min; at 76.9 µM; stronger effect = higher value; zero percent set by DMSO-only wells
Outline: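 PathHunter enzyme-fragment complementation, CHO-K1 GPR32 stable line; 2,500 cells/well, overnight attach; cpd 90 min 37 °C 5% CO2; detection reagent 1 h RT; chemiluminescence. DMSO = EC0.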

activation, inactive:
CC(=O)c1ccc(N2CCN(S(=O)(=O)c3ccc4c(c3)C(C)(C)C(=O)N4)CC2)cc1 -6.45%
CCOc1ccc(NC(=O)CSc2ncc3c(n2)-c2ccccc2N(Cc2ccccc2C)S3(=O)=O)cc1 -7.38%
CCOCCCNc1ncnc2onc(C)c12 1.39%
Cc1ccc(Cl)cc1N1CCN(S(=O)(=O)c2ccc3c(c2)CC(C)N3C(=O)C2CCC2)CC1 (configuration not stated) -0.305%
CC(=O)c1ccc(NC(=O)c2sc(-n3nc(C)c(Cc4ccccc4)c3C)nc2C)cc1 -13.3%
Cc1cccc(NC(=O)Nc2nnc(N(C)Cc3ccccc3)s2)c1 -9.62%
COc1ccc(-c2nn3c(-c4ccccc4C)nnc3c3ccccc23)cc1 -30.1%
CN(C(=O)Cn1cc(S(=O)(=O)Cc2ccccc2Cl)c2ccccc21)c1ccccc1 -18.3%
Cn1c(=O)c2c(ncn2CC(=O)Nc2cccc(Cl)c2Cl)n(C)c1=O 5.48%
COc1cccc(Cn2c(CNC(=O)c3cc([N+](=O)[O-])ccc3Cl)nc3cccnc32)c1 -7.31%
Cc1ccccc1C(=O)NC1(C(F)(F)F)C(=O)Nc2c1c(=O)[nH]c(=O)n2-c1ccc(F)cc1 (configuration not stated) 0.436%
CCN(Cc1ccccc1)Cc1c(O)ccc2c(=O)c(-c3ccc(Cl)cc3Cl)coc12 -6.2%
Cc1noc(/C=C/c2cccs2)c1S(=O)(=O)N1CCC(C(=O)NCc2ccccc2Cl)CC1 -21.1%
CCCCNC(=O)CCCn1c(=O)c2ccccc2n(CC(=O)Nc2ccccc2OCC)c1=O -9.62%
CCOc1ccccc1NC(=O)c1ccc(F)c(S(=O)(=O)NCc2ccc3c(c2)OCO3)c1 -11.9%
COc1cc(/C=C(\C#N)c2nc3ccccc3[nH]2)ccc1OCc1cccc(C(F)(F)F)c1 16.6%
CCCc1cnc2c(c1SCC(=O)Nc1ccc(C)c(Cl)c1)c(=O)n(C)c(=O)n2C -11.4%
CCOc1ccccc1NC(=O)N1CCc2c(sc(C)c2CC)C1c1ccccc1 (configuration not stated) 20.4%
COc1ccc(CNc2ncnc3onc(-c4ccc(F)cc4)c23)cc1 23.7%
CC1CCc2c(sc(NC(=O)C3c4ccccc4Oc4ccccc43)c2C(=O)OC(C)C)C1 (configuration not stated) -24.8%
CCOC(=O)c1scc(-c2ccccc2)c1S(=O)(=O)Nc1cc(Cl)c(OC)cc1OC -68%
COc1ccc(Nc2nc(N)c3cc(OC)c(OC)cc3n2)cc1 -3.44%
Brc1c(NC2=NCCN2)ccc2nccnc12 49.4% and 41.5%
O=C(Cc1ccccc1)NCCc1csc2nc(-c3ccc(Cl)cc3)nn12 -3.72%
COc1cccc(CNC(=O)c2nn(-c3ccc(C)cc3)c(=O)c3c2c2ccccc2n3C)c1 -8.55%
COC(=O)c1ccc(CSc2nc3c([nH]c4ccccc43)c(=O)n2-c2ccc(OC)cc2)o1 5.81%
COc1ccc(CNC(=O)c2c3c(nc4ccccc24)C(=O)N(C2CCCCC2)C3)cc1 -28.9%
CCOC(=O)c1oc2ccc(S(=O)(=O)n3nc(-c4ccc(Br)cc4)cc3N)cc2c1C -1.62%
Cc1ccc(-n2nc(C)c3c(C(=O)NCc4ccccc4)cc(C4CC4)nc32)cc1 -14%
COc1ccccc1CNS(=O)(=O)c1ccc2c(c1)NC(=O)CC(=O)N2 3.3%
COc1ccccc1Nc1nn2c(=O)c3ccc(C(=O)N4CCCC(C)C4)cc3nc2s1 (configuration not stated) 11.6%
COc1ccc(C2CC(=O)N(Cc3cccc(F)c3)c3ccccc3S2)cc1 (configuration not stated) 3.49%
Cc1ccc(S(=O)(=O)NCc2nc(-c3cccc(C)c3)no2)cc1 2.9%
CCn1cc(C(=O)NCc2ccccc2Cl)c(=O)c2cc(S(=O)(=O)N3CCc4ccccc4C3)ccc21 -7.22%
CCOC(=O)c1sc(NC(=O)C2c3ccccc3Oc3ccccc32)c(C(=O)OCC)c1C -0.307%
CCOC(=O)c1cccnc1 11.4%
COCCCNC(=O)c1ccc2c(c1)N(Cc1ccccc1)C(=O)c1ccccc1S2 -23.1%
O=C(CSc1nc(=O)n(CCN2CCOCC2)c2c1CCC2)Nc1ccccc1 -9.99%
COc1ccccc1CNC(=O)CCCn1c(=O)c2ccccc2n(CC(=O)Nc2c(C)cc(C)cc2C)c1=O 23.4%
CN(C)CCOC(=O)COc1ccc(Cl)cc1 -11.1% and -2.37%
COc1ccc(C(=O)Nc2nnc(S(=O)(=O)N(CC(C)C)c3ccc(C)cc3)s2)cc1OC 4.59%
Cc1ccc2c(c1)N(C(=O)CCC(=O)NCc1ccccc1Cl)CC(C)O2 (configuration not stated) -15.2%
O=C(Nc1ccc(S(=O)(=O)Nc2ncccn2)cc1)c1ccccc1Cl -13.4%
O=C(Nc1cc(C(F)(F)F)ccc1Cl)c1cc(-c2ccc3c(c2)OCCO3)on1 8.37%
COC(=O)c1cccnc1-n1c(=O)c2cccnc2n(CC(=O)Nc2ccc(C)cc2C)c1=O -8.35%
CC(=O)c1ccc(NC(=O)COc2ccccc2-c2nc(-c3cccc(C)c3)no2)cc1 -3.44%
COc1ccc(NC(=O)CSc2nnc(NC(=O)Nc3ccccc3)s2)cc1OC 5.52%
CC(NC(=O)Cn1c(=O)oc2cc(S(=O)(=O)NCc3ccccc3)ccc21)c1ccccc1 (configuration not stated) 8.78%
COc1ccc(-c2cn3cccnc3n2)cc1NC(=O)Nc1ccc(Cl)cc1 -8.11%
O=C(Nc1ccc(S(=O)(=O)Nc2ncccn2)cc1)c1cc(=O)c2ccccc2o1 -3.68%
Cc1ccc(C(=O)c2oc3ccccc3c2NC(=O)COc2ccc(C(C)C)cc2)cc1 -4.15%
O=C(CC1C(=O)N(c2ccccc2)C(=O)N1Cc1ccc(F)cc1)Nc1cccc(F)c1 (configuration not stated) -15.5%
